The results in this text go back to article PMC4336329 (PLoS ONE, 2015).

Among all 310,000 compounds or so, about 14,000 (4.5%) showed an effect of 50% or more. The effect is printed as a negative number. Some of the results follow.
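Further: peak tail current of the secondary pulse compared with the same well before compound.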

For the test, the target named is human ether-à-go-go-related gene (hERG) potassium channel (human, UniProt Q12809). As to the kind of experiment: primary screen, population patch clamp on CHO cells stably expressing hERG.
human ether-à-go-go-related gene (hERG) potassium channel, sequence (Q12809 whole entry, looked up): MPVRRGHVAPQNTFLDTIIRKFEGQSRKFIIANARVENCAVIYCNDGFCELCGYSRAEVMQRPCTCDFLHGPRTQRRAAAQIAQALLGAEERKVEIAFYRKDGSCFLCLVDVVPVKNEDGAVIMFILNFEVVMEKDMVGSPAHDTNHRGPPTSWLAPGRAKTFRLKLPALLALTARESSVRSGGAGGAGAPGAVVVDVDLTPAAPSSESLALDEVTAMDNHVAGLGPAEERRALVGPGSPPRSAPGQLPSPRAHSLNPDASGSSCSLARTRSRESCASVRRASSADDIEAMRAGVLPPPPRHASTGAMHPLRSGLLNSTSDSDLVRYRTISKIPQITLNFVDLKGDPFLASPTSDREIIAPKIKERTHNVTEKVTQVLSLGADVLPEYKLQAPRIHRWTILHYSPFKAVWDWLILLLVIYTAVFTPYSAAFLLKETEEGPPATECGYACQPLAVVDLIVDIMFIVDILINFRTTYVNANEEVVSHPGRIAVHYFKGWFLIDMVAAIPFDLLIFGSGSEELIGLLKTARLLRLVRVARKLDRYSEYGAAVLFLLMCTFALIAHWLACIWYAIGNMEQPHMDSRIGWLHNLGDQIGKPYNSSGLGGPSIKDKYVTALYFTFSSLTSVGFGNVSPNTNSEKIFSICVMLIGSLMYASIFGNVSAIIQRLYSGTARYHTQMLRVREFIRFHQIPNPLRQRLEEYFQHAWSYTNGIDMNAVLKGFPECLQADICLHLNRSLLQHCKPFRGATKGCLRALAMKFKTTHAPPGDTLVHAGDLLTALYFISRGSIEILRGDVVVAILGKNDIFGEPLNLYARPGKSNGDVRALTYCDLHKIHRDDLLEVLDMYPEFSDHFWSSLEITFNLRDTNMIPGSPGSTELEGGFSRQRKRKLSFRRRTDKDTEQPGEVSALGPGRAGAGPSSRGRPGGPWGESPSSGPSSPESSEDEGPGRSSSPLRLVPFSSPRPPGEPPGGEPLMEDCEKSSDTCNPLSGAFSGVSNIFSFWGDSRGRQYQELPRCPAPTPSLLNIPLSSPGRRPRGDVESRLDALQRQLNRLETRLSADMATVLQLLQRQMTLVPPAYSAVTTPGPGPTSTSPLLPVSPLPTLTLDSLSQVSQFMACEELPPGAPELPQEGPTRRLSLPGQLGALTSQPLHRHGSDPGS
As to `COc1ccc(-c2cn(-c3ccc(Cl)cc3)c3[n+]2CCCCC3)cc1.[Br-]`, the “hERG current change (%, negative = inhibition) at 10uM” value was -31.9%.
As for `Cc1ccsc1/C=C/c1n[nH]c(=O)c(C#N)c1C`, the figure is 11.4%; as for `O=C(CCSc1nnc(-c2ccncc2)o1)Nc1ccccc1Cl`, -10.9%.
The figure for `Cc1nc(-c2coc3cc(OCC(=O)O)ccc3c2=O)cs1` is -3.01%; for `Nc1ccn(-c2ncc(C(F)(F)F)cc2Cl)c(=O)n1` it is 1.7%; for `COc1ccc(-n2ncc3c(N(C)C4CCCCC4)ncnc32)cc1` it is 4.48%.
As for `COc1cc(SC)ccc1C(=O)Nc1ccccc1`, the figure is -3.75%.
In the case of `COc1ccc(-c2cc(CNC(C)=O)on2)cc1`, the “hERG current change (%, negative = inhibition) at 10uM” value is on record as 10.8%.
As for `COc1ccc(S(=O)(=O)Nc2cc3c4c(c2)CCN4C(=O)CC3)cc1C`, the figure is -26.9%; as for `O=C(CCC1CCCCC1)NNC(=O)c1cnccn1`, -4.92%.
The figure for `COc1ccc(C(=O)NC(C)c2nccs2)cc1OC1CCN(C(C)C)CC1` (stereo not shown) is 8.16%; for `CC(C)(C)NC(=O)Cc1ccc(Cl)c(Cl)c1` it is 23.1%.
As for `Nc1nnc(CC(=O)N/N=C/c2cccc([N+](=O)[O-])c2)s1`, the figure is 16.6%; as for `COCCOC(=O)c1c(NC(=O)CNC2CCCc3ccccc32)sc(C(N)=O)c1C` (stereo not shown), -30.4%.
As for `Cc1ccccc1OCCOc1cccc(/C=N/NC(=O)Cc2nnc(N)s2)c1`, the “hERG current change (%, negative = inhibition) at 10uM” value is listed as 14.2%.
The figure for `O=C(c1cccc(Cl)c1)N1CCN(C(=O)c2ccco2)CC1` is -8.43%; for `C=CCNc1nc(NCCN2CCOCC2)nc(OC)n1` it is -4.89%; for `CSC1=C(C#N)C(CC(C)C)C(C(C)=O)=C(C)N1` (stereo not shown) it is -1.73%.
The figure for `Cc1cc(C)c(NC(N)=S)c(C)c1` is 12.8%; for `CCOC(=O)c1[nH]c2ccccc2c1NC(=O)c1ccc(S(=O)(=O)N2CCOCC2)cc1` it is -33.7%; for `COc1ccc(CNC(=O)CCc2c(C)nc3cc(-c4ccccc4OC)nn3c2C)cc1` it is -37.7%.
The figure for `Cl.c1ccc2c(c1)N1CCN=C1N2CCN1CCCCC1` is -15.3%; for `CCC(=O)Nc1ccc(S(=O)(=O)Nc2nccs2)cc1` it is 19.5%.
Turning to `O=C(Nc1ccc(F)cc1)N1CCc2ccccc2C1`, the “hERG current change (%, negative = inhibition) at 10uM” value is given as -22.6%.
The figure for `O=c1cc(NCc2ccco2)c2ccccc2o1` is 7.67%.
As for `O=C(N/N=C/c1cccnc1)c1ccc(NC(=O)c2cccc(Cl)c2)cc1`, the figure is 15.3%; as for `CNC(=O)c1cc(S(=O)(=O)Nc2ccc3c(c2)OCCO3)ccc1C`, 4.54%; as for `COc1ccc(C(C(=O)OCCN(C)C)c2ccccc2)cc1.Cl` (stereo not shown), -36.6%.
Turning to `COc1ccc(-c2cc(CNC(=O)CN3CCN(C)CC3)on2)cc1`, the “hERG current change (%, negative = inhibition) at 10uM” value stood at 1.99%.
As for `COc1cc(C)c(NC(=S)Nc2ccc(Cl)c(Cl)c2)cc1OC`, the figure is 5.06%.
As to `CC(=O)c1cc(NC(=O)c2ccccc2)c(=O)oc1C`, the “hERG current change (%, negative = inhibition) at 10uM” value was 5.99%.
As for `O=C(Nc1ccc(N2C(=O)C3C4C=CC(C4)C3C2=O)cc1)Nc1nnc(C(F)(F)F)s1` (stereo not shown), the figure is 4.18%; as for `O=[N+]([O-])c1ccc(OCC(O)CN2CCN(c3ccccc3F)CC2)cc1` (stereo not shown), -75.3%; as for `O=C(Nc1ccc(C(=O)O)cc1)/C(=C\c1ccc2c(c1)OCO2)NC(=O)c1ccco1`, 45.1%.
The figure for `COc1cc(NC(=O)c2ccccc2)c(OC)cc1NC(C)=O` is -6.29%.
The figure for `COc1ccc(C(=O)Nc2ccc(-c3ccc(C)o3)cc2)cc1S(=O)(=O)N1CCOCC1` is 14.6%; for `CCC(CCC(=O)Nc1ccc(S(N)(=O)=O)cc1)C(=O)O` (stereo not shown) it is 0.228%; for `CC1(C)CC(=O)C2=C(C1)N=C1c3ccccc3C(=O)C1C2c1ccc(Cl)cc1` (stereo not shown) it is -18.2%.
As to `Cc1ccccc1-c1nc(Cc2ccc(Cl)cc2)no1`, the “hERG current change (%, negative = inhibition) at 10uM” value is listed as 0.775%.
The figure for `Cc1cc(NC(=O)CS(=O)(=O)c2c[nH]c3ccccc23)no1` is 4.1%.
Take `CN(C)C(C(=O)NC1CCCCC1)c1ccc(Cl)cc1` (stereo not shown): the “hERG current change (%, negative = inhibition) at 10uM” value is 4.27%.
As for `COCC(C)NCc1ccccc1C.O=C(O)C(=O)O` (stereo not shown), the figure is -1.67%; as for `CN(CC(=O)Nc1cccc(F)c1)C(=O)c1cccnc1Sc1ccccc1`, -26.8%; as for `Cn1c2c(c(=O)n(C)c1=O)C(C(F)(F)F)(C(F)(F)F)N=C(C1CCCCC1)N2`, -16.8%.
The figure for `CCCCSCCCNC(=S)Nc1ccccc1C` is 5.08%; for `COc1cc(Cc2nccc3cc(OC)c(OC)cc23)c(NC(C)=O)cc1OC` it is 22.5%.
As for `COc1ccc(CC(=S)N2CCOCC2)cc1OC`, the figure is 23.9%.
`N#Cc1ccccc1OCC(=O)NCCNC(=O)COc1ccccc1C#N`: the “hERG current change (%, negative = inhibition) at 10uM” value is recorded as -10.1%.
The figure for `Cn1c(=O)cc(OCCCC(=O)NC2CCCC2)c2ccccc21` is -13.8%; for `Cc1cc(NC(=O)C(C)C)ncc1NC(=O)c1ccccn1` it is 4.15%.
The figure for `CCN(CC)C(=O)c1nn(Cc2ccccc2)c(=O)c2ccccc12` is -23.4%; for `Fc1ccc2[nH]c3c(N4CCN(C5CCCCC5)CC4)ncnc3c2c1` it is -46.7%.
As for `O=S(=O)(Cc1ccc(Cl)cc1)NCC1CCCO1` (stereo not shown), the figure is -6.17%; as for `NS(=O)(=O)c1ccc(NS(=O)(=O)c2cccs2)cc1`, 21.5%.
Consider `CCNc1ccc(C(=O)OCC(=O)N2CCCC2)cc1[N+](=O)[O-]`, for which the “hERG current change (%, negative = inhibition) at 10uM” value is -18.2%.
As for `CCOc1ccc(CNC(=O)c2ccc(Sc3ccc(Cl)cc3)c(NC(C)=O)c2)cc1`, the figure is -8.57%; as for `CCN1CCN(C(=O)c2ccc(C(F)(F)F)cc2)CC1`, -15%; as for `CC(=O)N1CCN(S(=O)(=O)c2cccc(C(=O)Nc3ccc(F)c(F)c3)c2)CC1`, -46.5%.
As for `CC(=O)Nc1ccc(C(=O)OCc2ccc(F)cc2)cc1`, the figure is -10.9%; as for `O=C(NC(=S)Nc1ccccc1C(F)(F)F)c1ccccc1F`, 4.2%.
The figure for `O=C(O)C(=O)O.c1ccc(CCNC2CCCCCC2)cc1` is -4.67%; for `COc1ccc2cc(S(=O)(=O)n3cnc(C)c3)ccc2c1` it is 25.8%.
Take `COc1ccc(C)cc1S(=O)(=O)N1CCCC(C(=O)N2CCOCC2)C1` (stereo not shown): the “hERG current change (%, negative = inhibition) at 10uM” value was 16.3%.
Turning to `CCOC(=O)C1CCN(c2c(NCCCN(C)C3CCCCC3)c(=O)c2=O)CC1`, the “hERG current change (%, negative = inhibition) at 10uM” value was -6.06%.
As for `O=S(=O)(c1ccccc1)c1nc(-c2ccco2)oc1NCc1ccccc1`, the figure is -4.93%; as for `CC(=O)N(CCCc1ccc(C(C)(C)C)cc1)CCCN(C)C`, -47.4%.
The figure for `Nn1c(SCC(=O)NCCc2ccc(F)cc2)nnc1C1CCCCC1` is -3.5%; for `O=C(NNC(=O)c1cc(-c2ccncc2)nc2ccccc12)c1cccc(Cl)c1` it is -9.55%; for `Clc1ccc(N=NN2CCOCC2)cc1` it is 3.02%.
With `CCCCn1c(N)c(N(CC(C)C)C(=O)C2=NN(c3ccccc3)C(=O)CC2)c(=O)[nH]c1=O`, the “hERG current change (%, negative = inhibition) at 10uM” value is listed as 10.4%.
As for `COc1cc2cc(CN(CCc3ccccc3C)C(=S)NCCCN(C)C)c(=O)[nH]c2cc1OC`, the figure is -20.2%; as for `C(=N\n1cnnc1)/c1cccc2ccccc12`, 7.94%; as for `O=C(CN1CCN(c2ccc(O)cc2)CC1)NCC(=O)Nc1ccc(F)c(F)c1F`, -40.3%.
As for `O=C(CN1C(=O)COc2ccccc21)N1CCN(c2ccccc2F)CC1`, the figure is -7.46%; as for `O=S(=O)(Nc1nc2c(s1)CCCC2)c1ccc(Br)cc1`, 7.76%; as for `COCCn1cnnc1SCC(=O)Nc1cc(OC)c([N+](=O)[O-])cc1C`, -2.6%.
The figure for `O=C(Nc1ccc(C(=O)N2CCOCC2)cc1)c1ccc([N+](=O)[O-])cc1` is -18.7%; for `Cc1nn(CC(=O)NCCCN2CC(C)CC(C)C2)c(=O)c2cccn12` (stereo not shown) it is 12.9%; for `Cc1ccc(-c2cc(C(=O)N/N=C/c3cccnc3)c3ccccc3n2)cc1C` it is 5.8%.
With `CC(=O)NC(N1CCCCC1)C(F)(F)C(F)(F)C(F)(F)C(F)F` (stereo not shown), the “hERG current change (%, negative = inhibition) at 10uM” value is on record as -2.84%.
With `O=C1CC2(CCN(C(=O)c3ccc([N+](=O)[O-])cc3)CC2)Oc2ccccc21`, the “hERG current change (%, negative = inhibition) at 10uM” value was -87.9%.
As for `CCN(CC(=O)Nc1c(F)cccc1F)C(=O)C1CC(=O)N(CCc2ccccc2)C1` (stereo not shown), the figure is -10.5%; as for `COc1cccc(CNC(=O)CCS(=O)(=O)c2ccccc2Cl)c1`, 11.2%.
As for `Cc1cc2nc(CCN3CCOCC3)n(S(=O)(=O)c3ccc(C(C)(C)C)cc3)c2cc1C`, the figure is -3.7%; as for `Cc1ccc2oc(=O)n(CCCOc3ccccc3C)c2c1`, 6.39%; as for `COc1ccc(C(=O)COC(=O)c2ccn(C)n2)cc1`, -14.5%.
The figure for `COc1cc(-c2nc3ccccc3nc2-c2ccc(O)c(OC)c2)ccc1O` is -10.8%.
For `COc1ccccc1N1CCN(S(=O)(=O)c2ccc3nc(-c4ccccc4)[nH]c3c2)CC1`, the “hERG current change (%, negative = inhibition) at 10uM” value is reported as -17.6%.
In the case of `Brc1ccccc1-c1nnc2sc(Cc3ccccc3)nn12`, the “hERG current change (%, negative = inhibition) at 10uM” value is listed as -14.2%.
On to `COc1ccc(NC(=O)c2nnn(CC(=O)Nc3ccccc3OC)c2N)c(OC)c1`, for which the “hERG current change (%, negative = inhibition) at 10uM” value is given as 0.272%.
The figure for `CCNC(=O)Cc1ccc(S(=O)(=O)N2CCOCC2)s1` is 1.81%.
